According to article PMC10726135:
The list shows a part of the results. At the low end of the ranking the order means little. Measured with an extract: partners may take part in the binding.

biological target: T1, HNF4alpha2 (COS-7 nuclear extract) (UniProt P41235); experiment: protein-binding microarray; conditions: COS-7 nuclear extract on double-stranded Agilent 4x180k PBM; binding buffer, salt, pH and temperature not given; high values mean tight binding; double strand, one strand shown; sequences stand for … in …GCCTAGGGAGATTAGAGTATCGGTCGA
T1 sequence: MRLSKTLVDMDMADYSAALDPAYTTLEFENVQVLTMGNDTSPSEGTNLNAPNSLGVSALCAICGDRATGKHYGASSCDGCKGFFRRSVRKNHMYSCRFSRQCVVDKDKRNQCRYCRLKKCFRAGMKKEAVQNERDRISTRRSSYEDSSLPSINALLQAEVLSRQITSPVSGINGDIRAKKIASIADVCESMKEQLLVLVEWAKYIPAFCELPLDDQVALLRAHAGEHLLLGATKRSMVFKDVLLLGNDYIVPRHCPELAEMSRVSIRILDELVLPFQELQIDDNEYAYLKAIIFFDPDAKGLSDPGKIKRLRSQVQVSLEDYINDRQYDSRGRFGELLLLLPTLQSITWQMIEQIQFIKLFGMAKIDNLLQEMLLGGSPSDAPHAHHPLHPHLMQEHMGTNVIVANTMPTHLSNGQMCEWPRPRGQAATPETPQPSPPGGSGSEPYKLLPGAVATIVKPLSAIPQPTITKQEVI

Sequence | binding signal (log2 normalized intensity)
AGGAGGGATCTGGCAGGGGCGCGGCCTAAT | -0.915
GGACTTGGGACTCTGCAGACTGGTGCTATG | 2.58
AATGATCTGACTCGGGTGTTCACAGGTGAC | 1.12
ACCTGAGGCCAAGCAGCTGTGATGAGGCCA | -1.13
TTGTACCCTTCTTTCCACCCTGTTGCACAA | 1.65
CTAGCAAATCTGCCCAACCTTTGCCCCTGG | 5.74
TTTGTCTCAGGAACTTTGTTTGTGTTTCCC | 1.35
TTCAGGGTTAAAAGTTCTGCTGAGTATCCA | 0.761
CCCAGTGTCTCTGGGCGCTGGGAAGACAGT | -1.2
TAAACCACCCAATCCTGCAGCATTCCCTAC | -1.14
TGCATTAAAGTCACAAAGGTGGAACTCAAG | 0.849
TGGGCTTCAGACATTGCAAATCTCTTCTTC | -0.484
CACAAAGGGTTATGGGAAGTGGGGTAAGCA | 0.273
CATCGAGGCCATCCCAGTTACTCAGCGAAT | -1.11
TCTTGTTTCAGAGTAAATACGAACCGTCGT | 1.46
TCTGTCTCATTCCCTGACAGACCCCTCCTA | 4.12
GTAATAAGCAGTAGACTAAAACCCATATCT | -1.33
TTGCATAGGCATTGTCTTGAAAGATAAAGT | 0.627
AGCAGCAGGGTCAGAAGGGAGGTAGTCGCC | -1.06
GGAGGGTCTTGCTTTGATGTTGATGGTTGC | 1.54
GGGGGGAAGCTCTGTCACTTCTGGTTACCA | -1.09
AGTAGGATAAGTCCTTCCAAAGTCCTTCTA | 2.41
TAAGTTGAAGTGAGTTGTTTGTTTTGAGAT | 1.35
TGCCCAGCTGCATCCTGTGCCTTGGTAGAG | -0.618
AGTACAGCTTTTTGTTTGTGTAAGTGTGGG | 2.25

Sequence | binding signal (log2 normalized intensity)
ATCAGGTTTCTCAAGTGATCGAAGGTCAAC | 4.61
CTTCACACAAACATCACCTACCTGACTCCT | -1.17
ATGCCTTGTCTAGTTAAGTGTTCAGCAAAT | 1.22
GTGATAACCCCTATGTCTTCAGACTTCAAA | 1.88
CTGGATGCCCAGGGATTCCTGAAGATCGCA | -1.26
ATTCGTCCAGGGCCGCCCAAGCGAATATGT | -1.02
AGCAATCTACTTTTCTTTTGGCATCTGTTG | 1.44
GCTGGACGCTGGTCAGCATCCTGCTTGTGA | -0.707
GGTGAGGGGAGCGTAAAACCACTGGCCCAT | -1.08
CACAGAAGTGGACCTTCACCAGATACTGAA | 0.751
GGACTGTCCTTTGCTAGATTCTTTCTTCCT | 0.875
GACCAGGAGTTTGGGATCAGACACGTGGGA | 0.516
CCCAGATATCTCTGGTAAACAGCTGACAAT | -0.967
GTACCATTCATGGACAGCCTTGCCACATGG | -1.07
CAATACTAGCAATAACCACAAGGGGGGAGC | -1.1
TAGCCACTGCATGATAGGCCCATCTTCTTA | -1.14
CAAGGTAACCCCCAACATTCTTTCCAGCTT | 1.29
CTCACAGGTTGTACTATGACCCAAACTTCA | 3.43
TGCTCCCTCCTGTGGTAATAAGTTGGTGGA | 1.31
TCAGCCTTGGGGCCATTCCAGTTTTGGAGA | 0.0939
GTTTACTAAAGGAAGGGAGGTGAGTGCTAG | -1.27
CCCTCGACGCGCCGGCGCAGCCGCGCTCCG | -1.06
GGTTCTTCCACGACTCCCCCGCTCACCCCT | 5.05
CTTTTGGGATCAGCAATGCTCAGCCCACCT | -1.09
CCGCGACAAGCGTCGCTGAGTGGAGGCCCA | -0.847

Sequence | binding signal (log2 normalized intensity)
CCTTGGACTCCTGGACTCAAGGAATCCTCC | 2.4
CTTAAGTTGTACCTGACTAAAACCTGCTGC | -1.18
GACCCTTATCAGCCTAGACAAGGCACCAAA | -1.19
CTCCATCTCCTCCACCAGCTTGCTGCAGAT | -1.04
ACATTCTGGAATGATACGCCGGCCAATCCG | -1.13
TAACATCTAACAGCTGATGAGGCACCAACA | -1.05
TGATGCCTGACTCAAGAAAGGATCTCACCC | -1.16
CTGGTCCTCAGGCCTTTGGACCCAGACTGA | 4.36
CAGGCAGATTTGACCTACGGACCATGGATC | 3.11
TCAGAAACAGGAATTCAAAGGTGCAAAGGT | 2.06
GCAGCACCTTGATGCTGGACTTCAGCCTCC | 4.7
CTTTTTCTTCTGGGGACGCCCACTGCTTTG | -1.21
GACCAGTCTGCCTGACTCCAGAGTCCAAAC | 2.77
GGGCAGCGCGGCGCGCTGGGAAGGCTCGTT | -1.03
GGGGAAATGACCTTTGTCCAGCTGTGCCGA | 6.11
ACAGCCCTGACATTCTTGAGCTGCTAAACC | -0.984
TCTGGCTTGGCCCCCGGACCCAAAGTAAAC | 4.04
CTATAAAACAGGAAAAAGGGACAAAACTTC | -1.12
CGTGGTTGATCAAAGGTTGGACTGAGGACC | 2.93
TACACAAAAGAGCTTTGAGTCTGGTGTTTC | 0.62
AAATCTTAGAGAACACTCCTCCCCTTTTCT | 2.07
GGAAATCCGAAATAAACTGAGGGGTGGGGA | -1.09
GTGTGTGTGTGTGTGTGTGTATGCCATGCT | 2.33
CGCCACTGCATTCCAGCCTGGGGCAATAGA | -1.11
TTAGGACAACATGAGTAAACGAGCTATTTA | -1.13

Sequence | binding signal (log2 normalized intensity)
ATGACACCCATCATGAGTAGGTTTACTAAA | -0.0613
GTCCAAGGACTTATCCTTGGGACATTCTCA | -1.22
CGCTGCCTCCCACCCCCACGGTGCGCTGCC | 4.11
GGAAGGGATGGGGTGCAAACTCACCTGGAG | -1.25
TGGCCAAAGGGCACAAGAGGAATTGTTCAA | 1.18
GAGATGAAAGGGGCCTCAGAGAAAGCCTGT | -1.21
TTTATTCACTTCTCAAAGGACAGATCAATG | 1.91
GCTGGAACTTGCTTCCTTATCTATATTTGC | 0.404
GCCAAACTCACAGCTTTTATGTCAAACCAC | -1.02
GCAAGGACGTGACCTTTATGGGAAAAAAAA | 1.31
GATAGAGAAAGAAAAAGTACACACCTGCAA | -1.17
GCTACTGACCAGATGTTATTACTTAATGCT | -1.04
CTCCTTTTGTGAGAGGTCAATGTCCAGTTC | 5.91
GTGAGCATGGCTGTGTTCCAATAAACTTCA | -0.568
GTAAACTGGCCAGAAGGTCAGAGATCAGGT | 1.71
GATCAAGATACAGGTCAGACCCTGGAATTC | 0.0675
TTGCTCTGCTTAAACCTTTCAAGGGATTCC | 0.308
CTGCCAAGACACAGAGAAAAAGAAGGTTGG | -1.18
TGCCACGCAATGCATAGCAGAAACATAGAA | -1.23
TCTCTCTGGCCTGTGGGGAGGTTATCTCGG | 0.998
GCAAGAAGAAGGTGGACATCGTGGTTGCAA | -1.03
ACTCCTCTGTACAGCTCTTGTGCTCTGGAC | 1.09
CCATCCACGGGTCCATGATTGCTGTCTACT | 0.171
CCTCAAATACTCTGAGTAAACACAGACTTT | 0.491
GTGTTCACAGGTGACCTCTGGCCACTGCAG | 2.75

Sequence | binding signal (log2 normalized intensity)
AAACCTTTGACCAATTGACCCTATCCACAT | 2.98
TCAATACTCCACAAGACCACAAGGTGGCGA | -1.22
AATAAATCAAGATCACTGCCTTGGAGGCAC | -1.19
AGTTTGGTTTAAAGTTCAAGTCATAACTGG | 2.32
AGCAGGTTGTACCTTGACCCAAGAAATAAA | 3.91
CAGTGGGGACGCCTTCCCCTGCCACTTTCA | -1.08
AGGAGATTTGGCTTTGAATTCCACTTCTAC | -1.08
CTTTAGTCAGAGATTTCTTTACCATACCAG | -0.914
GAACTGTCGCAGAAAACACAGAGATCTGAT | -1.07
GCTTATCACTGGTGATGTGAACCTCGATCC | 3.28
TCTAAGACCCATCCCTCAGGGTCCATATCC | 2.84
TTATGCTTGCAGGTGTCAGGGGTCAATGTG | 3.9
AATAACTGCTTTGTGGCATCAGGGTCCACA | 2.59
AGTCCAAAGTCTGCAGGGTAGGCAGACAGG | 1.1
GGACACAGAATGACTTTCAGAAAGTCCTTG | 0.299
CATTTTAACCTTTGGCTGGTAGAGCAGGTT | 2.6
CCGAGCCTCAGCCGGGAGAGGAGGCCCCCT | 1.99
AAGGACCTAGAGCTATTCCTTTGAAATGTT | 0.04
TCTGCAAGGAAGGTGGGGGCCGCCCATTGG | -1.05
TCTGATCCTTTACAGAGATAAGAGGTGTCA | 0.354
ACAGTACAAAGGTGAGCTTTTATCTTAAGT | 2.25
AAATCCCTGGTCAAAGTCAACTCCTCCAAG | -1.12
CGTGGGCGTGAGTTTGCTGTCTTGACTTGG | 0.995
GCTGGAGCTCCTGGGCCAAAGGGCATTCTG | 3.88
GTTTTTAAGACAAACAAAAAACCCTAGAGA | -1.14

Sequence | binding signal (log2 normalized intensity)
TCTCACTGCAACCTGAGTGCCAGAGCTGTG | -0.765
TCTCTGACGCTCAGTAAATCTGCACTTTAC | 1.69
GTGCTAAAGGTCATATCCAAAATATTTGCA | 2.36
AGCCTAGACAAGGCACCAAAGGAATCTACA | -1.19
TGCCCAGCAGAAAAGCTGTACCAATTATTG | -1.07
AAAGTGCATTGAAAGCACTAATTAACTGAG | -0.473
TTCATTATGGATAGGCACATATTGGATCTC | 1.67
GGTTTTTCCATTGTACTCAGTATGTGCTGA | 0.989
TAGATGTGCTATATAAAAACTAACCATACT | -1.2
GACCTTTGACTGCAGAAGATAAGAATCTCT | 3.08
ATAAGGCAGTGGTTTGCAGTTGGAAAGCTG | -0.923
AATTTACATAACAGGTTTGTAACTTCTTGG | 0.844
ATGTGTTTGCATGACTCATAAAGAACAGTT | 1.28
TTGACCTTCTCTGTTAACCCTTTGCAGCCC | 2.61
TTCATTTGCCCAGCTGTTCCGTGTTCCAGA | 0.539
TGTCTCCAGAAATCAACCTTTGATCGTTTG | 5.83
GGTCTACATGGAAGCCCAGATGACTGCCTT | -1.2
GAAGCAATGGCCCTCAGCAAACCTTCTGGC | -1.21
TGTGTTTCCCTCCCTGGTATGTACTTTCTT | 2.56
TTCACCTTTCGCCCTTTGTCCTATGACTCT | 4.63
